Reference: PMC7819943, “Rice protein-binding microarrays: a tool to detect cis-acting elements near promoter regions in rice”
Some of the results follow.

The sequences below were run against T1, OsWOX13 (Oryza sativa, UniProt Q5QMM3 1-267) (assay: protein-binding microarray (RPBM); PBS, 2% BSA, 51.3 ng/ul salmon testes DNA, 50 uM zinc acetate, 200 nM TF, 25 C, 1 h; high values mean tight binding). Settings: protein: recombinant; tags: N-terminal polyhistidine and DsRed monomer fusion (pET32a); label: CyDye5-dUTP incorporated in the synthesized complementary strand; 3' TTTTT single-stranded linker to array surface; dsDNA, one strand shown.
T1 sequence: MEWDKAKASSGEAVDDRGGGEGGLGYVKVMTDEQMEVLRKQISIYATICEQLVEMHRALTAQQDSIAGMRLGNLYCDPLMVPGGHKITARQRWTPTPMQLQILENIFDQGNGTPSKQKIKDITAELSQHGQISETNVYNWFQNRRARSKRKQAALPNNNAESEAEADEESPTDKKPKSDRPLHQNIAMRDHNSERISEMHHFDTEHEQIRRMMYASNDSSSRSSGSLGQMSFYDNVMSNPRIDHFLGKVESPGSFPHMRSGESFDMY
In short: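 Transcription factors were each fused at the N-terminus to a polyhistidine tag plus DsRed and expressed in E. coli BL21-CodonPlus before Ni–NTA purification. Binding to a double-stranded custom Agilent array was carried out with 200 nM protein at 25 °C for 1 h in PBS, 2% BSA, salmon testes DNA and 50 µM zinc acetate. The binding signal is per-feature fluorescence intensity, in arbitrary units, on an Axon 4000B scanner.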

Sequence	binding signal
ATGATGATGATGAGGAGGAGACTCTCTCACCTTCTCACGCCGGAGTCACCTAGTGCAG	11100 fluorescence intensity (a.u.)
AATGCTAAAATGATTTACACCGTGAAACGGAGGGAGTACCCGGAGTCACCTAGTGCAG	5510 fluorescence intensity (a.u.)
ATTATTTAGTAAAATTGATAAATATATGATATTATTTAGTCGGAGTCACCTAGTGCAG	6560 fluorescence intensity (a.u.)
AAATGCTAATTGCACAGTTTGCATGTAAATTGCGAGACGACGGAGTCACCTAGTGCAG	10200 fluorescence intensity (a.u.)
ATAATCATGATAATGACATGCTAATGATCATTCATGTGAACGGAGTCACCTAGTGCAG	17900 fluorescence intensity (a.u.)
AATATGATTATCAAAACTAGATAGAGGGAGTATTAGGAAACGGAGTCACCTAGTGCAG	19500 fluorescence intensity (a.u.)
CATCTAACCAATTAAGCCCACAGAAGCGATTCGGCTCGGCCGGAGTCACCTAGTGCAG	4000 fluorescence intensity (a.u.)
TAGTAATTTCACATCAGGTTCATCGAAGCATCGATCTTGTCGGAGTCACCTAGTGCAG	3860 fluorescence intensity (a.u.)
CATCAATTTGGTATCCTCACTTTGAATTGTTTTCATTGTCCGGAGTCACCTAGTGCAG	4020 fluorescence intensity (a.u.)
TAGTTAAATTTAGAGTAGTTAAAACGACTTATAACCTGGACGGAGTCACCTAGTGCAG	3570 fluorescence intensity (a.u.)
TTATCTATTTATTTATTTATTATTTTATTATTTTGTCTCGCGGAGTCACCTAGTGCAG	3450 fluorescence intensity (a.u.)
GGAAATTTAACTATTTGCCACTTTTAGGTTTATCAATTATCGGAGTCACCTAGTGCAG	4880 fluorescence intensity (a.u.)
CTAGAATTATTAATTCAAGAAATTATAAGGGGTTACATACCGGAGTCACCTAGTGCAG	8480 fluorescence intensity (a.u.)
CTTATTATAAAGATTTAATTATAACAAATATAATGGTATGCGGAGTCACCTAGTGCAG	4800 fluorescence intensity (a.u.)
GGGAGATGGGAGATTGGAGAAGATAGAGGAGAGAACTGTTCGGAGTCACCTAGTGCAG	4420 fluorescence intensity (a.u.)
AGGGGATTAAATAATTGCAAATCCGAATAATAAAAGAAATCGGAGTCACCTAGTGCAG	4330 fluorescence intensity (a.u.)
CTCTAAATTTGCAAATTCTACATATGCAGCTGCAGGAAAACGGAGTCACCTAGTGCAG	12700 fluorescence intensity (a.u.)
TCTCCTACTTGATTGGAAAATGTTCTTGATGAGAAATTAACGGAGTCACCTAGTGCAG	22400 fluorescence intensity (a.u.)
AATTCAAATTAAGTAGAAATTAAAATTAAATTCCAAGAGCCGGAGTCACCTAGTGCAG	18300 fluorescence intensity (a.u.)
TGTGATAAATTTGGTGTTAAATGTGTAGTTTTGTGATACACGGAGTCACCTAGTGCAG	16000 fluorescence intensity (a.u.)
CATGGGAGAGGGGTGTAGAATAGTTATTCTAGGGGAGGGGCGGAGTCACCTAGTGCAG	3560 fluorescence intensity (a.u.)

Sequence	binding signal
TAATTGATGGTATGGATTTAGTCAAATCCACCTGGTGGAGCGGAGTCACCTAGTGCAG	3280 fluorescence intensity (a.u.)
TAATAGTTAGATAGATAGATAGATGCGAGATGGTCCATCGCGGAGTCACCTAGTGCAG	11600 fluorescence intensity (a.u.)
AGTCTTTAATTATATCAAGAACTAAGTGTGGCTCGTTTTCCGGAGTCACCTAGTGCAG	8720 fluorescence intensity (a.u.)
CCACACAGTCAATTAGGCCCATTTGGCCCGAGACCAGTTCCGGAGTCACCTAGTGCAG	8510 fluorescence intensity (a.u.)
TTTACAATTATATCACACAATCAAGTGAGTTGTATTGGATCGGAGTCACCTAGTGCAG	8390 fluorescence intensity (a.u.)
TATATATATATATATATATGGGTGGTGTTCTTTTCTCTGGCGGAGTCACCTAGTGCAG	17400 fluorescence intensity (a.u.)
ATTTAACGTCATTTATAAACATATACTAGATACTAGTAATCGGAGTCACCTAGTGCAG	3890 fluorescence intensity (a.u.)
CGGCAAACTTTTGTCAATTAATATTAATACTGGACTACATCGGAGTCACCTAGTGCAG	4670 fluorescence intensity (a.u.)
CATGACGTAATTTTACATCCGTATCTGACGGTTGGTTTCACGGAGTCACCTAGTGCAG	12900 fluorescence intensity (a.u.)
GAATAAATGGATATATTGTGTGTCGCTGTTGTATACAGTGCGGAGTCACCTAGTGCAG	10100 fluorescence intensity (a.u.)
TATGAATGTAATTTCATGTATGTCTAAGTAATGAAAATGTCGGAGTCACCTAGTGCAG	3140 fluorescence intensity (a.u.)
ATCGTATCATTGATTTTCACTTAATATGGTGGACCCATCACGGAGTCACCTAGTGCAG	12700 fluorescence intensity (a.u.)
CGTTAATTGCTATGTCACAAGAGTGGCAAATAGTTAAATTCGGAGTCACCTAGTGCAG	17900 fluorescence intensity (a.u.)
GCTTTAATGGCAATCAAATCTGTTCATCCAAGGAGATTATCGGAGTCACCTAGTGCAG	15900 fluorescence intensity (a.u.)
TTGCTAAATTAACTTATAGCAGGACCTAGTAATGAAAGATCGGAGTCACCTAGTGCAG	5780 fluorescence intensity (a.u.)
TCTAATTTTAGCTTTTGATTTGGTTTATTATGTCAACTGACGGAGTCACCTAGTGCAG	3660 fluorescence intensity (a.u.)
ATTAATTATTACTACTAGTACTACCTAGTAGCTAGTATACCGGAGTCACCTAGTGCAG	17000 fluorescence intensity (a.u.)
TACTATAATTTGACCTCACGCCCTTGAGTTCATTGAGGATCGGAGTCACCTAGTGCAG	5680 fluorescence intensity (a.u.)
GCCATGCTGATTGCAATTTGGGGATTTATTTCGTATCTGTCGGAGTCACCTAGTGCAG	36800 fluorescence intensity (a.u.)
GCGGATAATTAAGACAAGCAGACATGGTCACAAGAAGAAGCGGAGTCACCTAGTGCAG	5640 fluorescence intensity (a.u.)
TTGGAGATGATTGATTGGAAATCTTCTTCCAGTCTCCTCTCGGAGTCACCTAGTGCAG	61700 fluorescence intensity (a.u.)
